{"source": "PubChem BioAssay AID1948", "about": "(National Center for Advancing Translational Sciences (NCATS), 2009)", "note": "Screen size: about 110,000 compounds; about 20 (0.02%) were called active. The inconclusive results got no clear call from the source; some entries with a clear call stand among them for comparison. Calls follow the shape of the dose curve; as a rule, active = well fitted activation curve with a large enough effect; inconclusive = small, poorly fitted or top-dose-only effect; inactive = no such curve, though single readings can be large or run the other way. No potency is given beside an inconclusive call; the fits are too rough. Potency is read from the fitted curve at half-maximal effect; tags tell the direction and shape of the fitted curve."}
{"assay": "qHTS Assay for Compounds that Induce Erasure of Genomic Imprints;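 as to activity change, positive = activation: 0% = negative control wells on the plate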", "details": "mouse ES Peg3-LacZ reporter, beta-gal luminescence, 40 h; activity change, positive = activation: at 10.9 µM (top of the series) unless noted", "in_short": "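Gelatin-coated wells received 300 freshly trypsinized female ES cells with a Peg3LacZ-Neo reporter on the maternal allele, then incubated 40 hours at 37C. BetaGlo was added for 5 minutes at room temperature before a single luminescence read.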"}
{"smiles": "CCOCCn1ccc2c(OCC(=O)Nc3ccc(C(N)=O)cc3)cccc2c1=O", "activity change, positive = activation": "inconclusive: 43.8% [activator]"}
{"smiles": "CCNc1ncc2ncc(=O)n(C3CC3)c2n1", "Potency": "inconclusive [activator, single point]"}
{"smiles": "O=C(c1ccco1)c1nnn(Cc2ccccc2)c1-c1ccccc1", "Potency": "inactive"}
{"smiles": "Cc1cccc(C(=O)NCC(c2ccco2)S(=O)(=O)c2cccs2)c1", "note": "(stereo not given)", "activity change, positive = activation": "inconclusive: 33% [activator]"}
{"smiles": "CCNc1ncc2nc(-c3cccc(C#N)c3)c(=O)n(Cc3cccc(OC)c3)c2n1", "Potency": "inconclusive [activator, single point]"}
{"smiles": "CCOCc1cc(CN2CCN(c3cccc(Cl)c3)CC2)c(O)c2ncccc12", "activity change, positive = activation": "inconclusive: 34.4% [activator]"}
{"smiles": "Cc1c(C(=O)N2CCCCC2)sc(NC(=O)C(C)C)c1C#N", "Potency": "inconclusive [activator, single point]"}
{"smiles": "Cc1ccc(CS(=O)(=O)c2ncc(Cl)c(C(=O)Nc3nc4ccc(F)cc4s3)n2)cc1", "Potency": "inactive"}
{"smiles": "Nc1c(C(=O)Nc2ccc(C(=O)O)cc2)sc2nc3c(cc12)CCCC3", "Potency": "inactive"}
{"smiles": "Cc1oc(-c2cccc(Cl)c2)nc1CN1CCCC(C(=O)NCc2ccco2)C1", "note": "(stereo not given)", "Potency": "inconclusive [activator, partial curve]"}
{"smiles": "O=C(Nc1nnc(S(=O)(=O)Nc2ccccc2)s1)c1ccccc1Cl", "activity change, positive = activation": "inconclusive: 73.7% [activator]"}
{"smiles": "COCCN1CCN(c2c(C)c(C)nc3cc(-c4cccc(OC)c4)nn23)CC1", "Potency": "inactive"}
{"smiles": "COc1ccc(NC(=O)C2CCC(CNS(=O)(=O)c3ccc(Br)s3)CC2)cc1OC", "note": "(stereo not given)", "Potency": "inactive"}
{"smiles": "O=C(Nc1ccc(Br)cc1F)c1ncoc1-c1ccco1", "activity change, positive = activation": "inconclusive: 138% [activator]"}
{"smiles": "c1cncc(CNc2nc(-c3ccoc3)nc3ccccc23)c1", "Potency": "inconclusive [activator, partial curve]"}
{"smiles": "Cn1cc(-c2nc3cnc(N4CCNCC4)nc3n(-c3ccccc3)c2=O)c2ccccc21", "Potency": "inconclusive [activator, single point]"}
{"smiles": "CN(C)C(=O)c1ccc(-c2nc(-n3ccnc3)c3ccccc3n2)cc1", "Potency": "inactive"}
{"smiles": "CN1CCN(c2ncnc3ccc(-c4ccoc4)cc23)CC1", "Potency": "inconclusive [activator, full curve, poor fit]"}
{"smiles": "Cc1cnc(NC(=O)COc2ccccc2Cl)s1", "Potency": "inactive"}
{"smiles": "CCN(Cc1ccccc1)C(=O)C(CC(C)C)NS(=O)(=O)c1ccc2c(c1)CCN2C(C)=O", "note": "(stereo not given)", "activity change, positive = activation": "inconclusive: 82.7% [activator]"}
{"smiles": "Cc1cc(C)c(NC(=O)CN2C(=O)CCSc3ccc(S(=O)(=O)N4CCCC4)cc32)c(C)c1", "activity change, positive = activation": "inconclusive: 43.2% [activator]"}
{"smiles": "Cc1cc(NS(=O)(=O)c2ccccc2)no1", "Potency": "inconclusive [activator, single point]"}
{"smiles": "COc1ccccc1-c1nc(-c2ccc(C)nc2OC)no1", "Potency": "inactive"}
{"smiles": "O=C(c1ccccc1F)N1CCN(c2ccccc2F)CC1", "Potency": "inactive"}
{"smiles": "CCc1c(-c2ccccc2)nc2ccccc2c1C(=O)NCCc1ccccc1", "activity change, positive = activation": "inconclusive: 40.3% [activator]"}
{"smiles": "CCc1ccc2ncc3c(-c4ccc(F)cc4)nn(CC(=O)NCc4ccccc4)c3c2c1", "Potency": "inactive"}
{"smiles": "COCCn1ccc2c(OCC(=O)Nc3cccc(OC)c3)cccc2c1=O", "activity change, positive = activation": "inconclusive: 58.5% [activator]"}
{"smiles": "CCC(C)n1nccc1NC(=O)C(C)OC(=O)c1cc2ccccc2[nH]1", "note": "(stereo not given)", "Potency": "inconclusive [activator, single point]"}
{"smiles": "Cc1cc(S(=O)(=O)Nc2ccc(-c3ccc(N4CCCCC4)nn3)cc2)c(C)cc1Cl", "activity change, positive = activation": "inconclusive: 35.4% [activator]"}
{"smiles": "COC(=O)c1c(SCC(=O)Nc2cc(C)cc(C)c2)[nH]c2ccccc2c1=O", "Potency": "inactive"}
{"smiles": "Cc1cc(NCCN2CCOCC2)n2c(nc3ccccc32)c1C#N", "Potency": "inconclusive [activator, partial curve]"}
{"smiles": "CC(=O)c1c(C)nc(-c2ccc(Cl)cc2)nc1N=CN(C)C", "Potency": "inconclusive [activator, single point]"}
{"smiles": "CCN1CCN(C(c2ccccc2)c2sc3nc(-c4ccco4)nn3c2O)CC1", "note": "(stereo not given)", "activity change, positive = activation": "inconclusive: 33.5% [activator]"}
{"smiles": "COc1cccc(Nc2ncc3nc(-c4cccs4)c(=O)n(CCC#N)c3n2)c1", "Potency": "inconclusive [activator, single point]"}
{"smiles": "COc1ccc(-c2nc3ccccc3o2)cc1NC(=O)C(C)Oc1ccc(Cl)cc1Cl", "note": "(stereo not given)", "activity change, positive = activation": "inconclusive: 33.6% [activator]"}
{"smiles": "Cc1ccccc1CNC(=O)C1CCN(c2nnc(-n3c(C)ccc3C)s2)CC1", "activity change, positive = activation": "inconclusive: 34.3% [activator]"}
{"smiles": "C=CCSc1nnc(-c2ccc(Cl)cc2Cl)o1", "Potency": "inactive"}
{"smiles": "COc1cccc(-c2cncnc2NCc2cccs2)c1", "Potency": "inconclusive [activator, single point]"}
{"smiles": "COc1ccc2c(c1)c1c(c(=O)n(-c3ccc(F)c(Cl)c3)c(=O)n1Cc1cccc(C)c1)n2C", "activity change, positive = activation": "inconclusive: 44.5% [activator]"}
{"smiles": "CCNc1ncc2ncc(=O)n(CCOC)c2n1", "Potency": "inconclusive [activator, partial curve]"}
{"smiles": "COc1ccc(OC)c(CNC(=O)c2nn(-c3ccc(OC)c(Cl)c3)c(=O)c3c2c2ccccc2n3C)c1", "activity change, positive = activation": "inconclusive: 40.2% [activator]"}
{"smiles": "COC(=O)c1cc(NS(=O)(=O)c2ccc(OC)c(OC)c2)ccc1Cl", "Potency": "inconclusive [activator, single point]"}
{"smiles": "COCCn1c(C(=O)N(C)C)cc2c1C[C@H]1CN(C(=O)c3ccccc3)[C@@](Cc3ccc(F)cc3)(C(=O)OC)[C@@H]21", "Potency": "inconclusive [activator, single point]"}
{"smiles": "CCCC(=O)Nc1ccc(C(=O)n2nnc3ccccc32)cc1", "Potency": "inconclusive [activator, single point]"}
{"smiles": "CCNc1oc(COc2cccc(C)c2)nc1C#N", "Potency": "inactive"}
{"smiles": "NCc1ccc(-c2nc3ccccc3o2)cc1", "Potency": "inactive"}
{"smiles": "Cc1ccc(NC(=O)CSc2nc3ccc(Br)cc3[nH]2)c(C)c1", "activity change, positive = activation": "inconclusive: 41.8% [activator]"}
{"smiles": "O=C(CCCOc1ccc(Cl)cc1Cl)NCCCO", "Potency": "inconclusive [activator, single point]"}
{"smiles": "COc1ccc(-c2cc(OC(=O)c3ccc(F)cc3)c3c(C)oc(C)c3c(=O)c2)cc1OC", "Potency": "inactive"}
{"smiles": "c1ccc(-c2nc(NC3CC3)nc(-n3ccnc3)n2)cc1", "Potency": "inactive"}
{"smiles": "CC(C)c1ccc(NC(=O)c2cnn3c(C(F)F)cc(-c4ccccc4)nc23)cc1", "activity change, positive = activation": "inconclusive: 36.7% [activator]"}
{"smiles": "Cc1ccccc1NC(=O)c1ccc(F)c(S(=O)(=O)N2CCc3ccccc3C2)c1", "activity change, positive = activation": "inconclusive: 30.3% [activator]"}
{"smiles": "CCc1ccc(S(=O)(=O)Nc2cccc(-c3ccc(OC)nn3)c2)s1", "Potency": "inactive"}
{"smiles": "COc1cccc(NC(=O)c2sc3nc(C)c(C(=O)Nc4ccc(C)cc4C)c(-c4ccc(C)o4)c3c2N)c1", "activity change, positive = activation": "inconclusive: 86.1% [activator]"}
{"smiles": "CC(C)(C)n1ncc2c(=O)n(CC(=O)NCCc3ccccc3)cnc21", "Potency": "inactive"}
{"smiles": "COCCn1c(=S)[nH]c2cc(C(=O)NCCCN3CCOCC3)ccc2c1=O", "Potency": "inconclusive [activator, single point]"}
{"smiles": "Cc1ccc(-c2cc(C(=O)Nc3c(C#N)cnn3C)no2)cc1", "Potency": "inactive"}
{"smiles": "Cc1ccc(NC(=O)NCC2CCN(Cc3cccc(Cl)c3)CC2)cc1Cl", "Potency": "inactive"}
{"smiles": "CC(C)(C)CC(=O)N1CCC(c2nc3c(nnn3Cc3c(F)cccc3Cl)c(=O)[nH]2)CC1", "Potency": "inconclusive [activator, partial curve]"}
{"smiles": "COc1ccc(S(=O)(=O)N2CCN(Cc3ccc4c(c3)OCO4)CC2)c2ccccc12", "Potency": "inconclusive [activator, single point]"}
{"smiles": "Cc1ccc(C(=O)Nc2cccc3cccnc23)cc1Cl", "activity change, positive = activation": "inconclusive: 66.2% [activator]"}
{"smiles": "CN1C(=O)Cc2cc(S(=O)(=O)N3CCOCC3)ccc21", "Potency": "inconclusive [activator, single point]"}
{"smiles": "O=C(CSc1n[nH]c(-c2ccc(F)cc2)n1)NCCc1ccccc1", "activity change, positive = activation": "inconclusive: 40.2% [activator]"}
{"smiles": "Cc1ccc(CNC(=O)c2ccc(CS(=O)Cc3cccc(Cl)c3)o2)cc1", "note": "(stereo not given)", "activity change, positive = activation": "inconclusive: 72.8% [activator]"}
{"smiles": "O=C(Cn1cnc2c(cnn2-c2ccccc2)c1=O)OCc1ccccc1", "Potency": "inactive"}
{"smiles": "Cc1ccc(S(=O)(=O)NC(CC(=O)O)c2ccccc2)cc1", "note": "(stereo not given)", "Potency": "inactive"}
{"smiles": "O=C(CCn1nnc2ccccc21)N1CCC(O)(c2cccc(F)c2)CC1", "Potency": "inconclusive [activator, single point]"}
{"smiles": "COc1ccc(S(=O)(=O)Nc2ccc(S(=O)(=O)Nc3nc(C)cc(C)n3)cc2)cc1OC", "Potency": "inconclusive [activator, single point]"}
{"smiles": "c1ccc(CNc2nc(-c3ccc4c(c3)OCO4)nc3ccccc23)cc1", "Potency": "inconclusive [activator, single point]"}
{"smiles": "CCc1cccc(-n2c(=O)c3cccnc3n2CC(=O)NCc2ccc(C)cc2)c1", "Potency": "inactive"}
{"smiles": "COc1ccc(C(=O)CSc2nc3nc(C)cc(C)c3c(=O)[nH]2)cc1OC", "Potency": "inactive"}
{"smiles": "Cn1c(=O)c(-c2ccc(F)c(F)c2)nc2cncnc21", "Potency": "inconclusive [activator, single point]"}
{"smiles": "O=C(Nc1nc2ccc(F)cc2s1)c1nc(S(=O)(=O)Cc2ccccc2F)ncc1Cl", "Potency": "inactive"}
{"smiles": "COc1ccc(CCNc2oc(COc3ccccc3F)nc2C#N)cc1", "Potency": "inactive"}
{"smiles": "CN1CCN(c2ncnc3ccc(-c4cccnc4)cc23)CC1", "Potency": "inconclusive [activator, single point]"}
